From the supplement of paper PMC3724861
The other results are listed elsewhere or left out.

System: T1, Caupolican (Caup) homeodomain DNA-binding domain
T1 sequence: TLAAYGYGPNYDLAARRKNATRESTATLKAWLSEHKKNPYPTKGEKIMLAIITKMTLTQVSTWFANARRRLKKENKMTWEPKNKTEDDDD
Assay: PBM E-score (8-mer, recovered from the published 9-mer minima) (E-score (dimensionless, -0.5 to 0.5)); Drosophila protein; higher = stronger relative binding preference, active = 0.31 or more
Method in brief: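 Caup's homeodomain DNA-binding domain (residues 214-303) was produced by in vitro transcription and translation and applied at 100 nM to custom-designed protein binding microarrays. Each value is an enrichment score giving relative binding preference for a short DNA word; higher means stronger. Published 9-mer scores were the minimum of their two constituent 8-mer scores, and the 8-mer values were recovered from those minima. A cutoff of 0.31 marks candidate binding sequences.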

Sequence	PBM E-score
CGGGTGCA	inactive: -0.214
GTAACTAA	inactive: 0.116
GACATCAC	inactive: 0.259
CCCCTGCA	inactive: -0.211
CAATGGCC	inactive: -0.187
CAGTGGGC	inactive: -0.216
AATGACTC	inactive: 0.118
CATCTAAC	inactive: 0.0247
CGGTGCTA	inactive: -0.144
CATTGGAG	inactive: -0.0395
CAAACGCA	inactive: -0.0499
AGCCCGGA	inactive: -0.247
CATATTGA	inactive: 0.164
GCGAACCC	inactive: -0.164
AGAAAACT	inactive: 0.0106
ACGTAAAT	inactive: 0.102
AGAGACAC	inactive: 0.0757
ACGGACCC	inactive: -0.139
GGCCGCAA	inactive: -0.224
CGAACGTA	inactive: 0.0606
AATGTCGT	inactive: 0.266
CTGGGTCC	inactive: -0.2
CCATGTCC	inactive: 0.292
GCAGCACC	inactive: -0.101
AGCGCGTC	inactive: -0.132

Sequence	PBM E-score
ACACTAAA	inactive: 0.182
ACTTCCTA	inactive: 0.0242
CGTTAGAA	inactive: 0.063
CCACGTGA	inactive: -0.0707
ACAGCGAG	inactive: -0.0026
AAAGTCTC	inactive: -0.136
GCAATTGC	inactive: 0.026
TGATTTAA	inactive: 0.174
GGGTGCTA	inactive: -0.00521
GGGGCTAA	inactive: -0.185
AACCTTAA	inactive: -0.0003
CAACAAGC	inactive: 0.202
ATATAGGC	inactive: 0.0531
ACCGAAAA	inactive: 0.072
GCGCGGTA	inactive: -0.0591
AGGGATTG	inactive: -0.0847
GTCAGCCA	inactive: 0.00104
ACACTACC	inactive: 0.0978
AGTGCTAA	inactive: -0.0109
TACCTCCA	≥ -0.00139
CGACAGGA	inactive: 0.145
AAGCTTAG	inactive: -0.00217
ACCGATCG	inactive: -0.0125
AGTCATAT	inactive: 0.103
CCTGTATA	inactive: 0.142

Sequence	PBM E-score
ACATTAAA	inactive: 0.255
CCTATTTC	≥ 0.137
CGTACTCC	inactive: -0.0465
GAGACGTA	inactive: -0.0126
ACCCTATC	inactive: -0.0298
TCTGAGCA	≥ 0.0229
ATTTGGAG	inactive: -0.129
CATGCACA	inactive: 0.229
GCGCATGA	inactive: -0.159
ATCGCACA	≥ 0.0699
CTACGAAG	inactive: -0.0135
GGGACTTA	inactive: -0.0424
ACCTACGT	≥ 0.0774
CAACCCTG	inactive: -0.012
ACGGCGCC	inactive: -0.209
GGATTGTA	inactive: 0.0984
CAATGTTC	inactive: 0.218
ATGCTCTG	inactive: -0.0113
AGCATCCG	inactive: 0.0108
CCTCTCGA	inactive: -0.157
AACGTGGG	inactive: -0.0743
GATAGCCC	inactive: -0.245
AACGTGCA	inactive: 0.105
CCGGCGTA	inactive: -0.129
CCTTCGAG	inactive: -0.182

Sequence	PBM E-score
GATTTTTA	inactive: 0.0485
CATCTGGA	inactive: -0.00757
AGCTGACT	inactive: -0.0935
CTGTAGTA	active: 0.348
ACGACTCT	≥ 0.0628
CGATCACC	inactive: -0.072
CTGCGAAA	inactive: -0.04
CTGATATA	inactive: 0.211
GCAGATAC	inactive: 0.03
GTTCATCA	inactive: 0.111
AGCACTAG	inactive: 0.00807
GAGGCTGC	inactive: -0.2
CGAGCCCC	inactive: -0.252
GACTACCA	inactive: 0.106
CCGGGTAA	inactive: -0.0595
ATTGTTGG	inactive: 0.145
AGTGGGAA	inactive: -0.112
CACTCTGA	inactive: 0.0251
CAGTTCGA	inactive: 0.129
GAAGAATC	inactive: -0.119
CTGTATCA	inactive: 0.15
GGGTATAA	inactive: -0.0971
CGGTAGCC	inactive: -0.0876
CTGACTAA	inactive: 0.0361
AACCGTGC	inactive: -0.0695

Sequence	PBM E-score
ACATTCTA	≥ 0.247
CCAATAGA	inactive: 0.077
CGATACCA	inactive: 0.0656
GAATATCC	inactive: 0.0199
GGATATCC	inactive: 0.0403
AGACGACT	inactive: 0.0148
CGGAACTA	inactive: -0.0396
CACATTAG	inactive: -0.00577
ATTGCTAA	inactive: 0.0919
AGACCAGA	inactive: 0.0165
AAGCGCAA	inactive: -0.0245
GTAGCTAC	inactive: 0.201
AGCAGTAG	inactive: -0.098
AATGGTCC	inactive: -0.00432
CCGCCTAG	inactive: -0.202
CGCCTGAC	inactive: -0.0938
GTCGAGCA	inactive: -0.0397
ATTCCCTG	inactive: 0.0397
AGGGAGGA	inactive: -0.166
ACTGTGGA	inactive: 0.0533
GATCCGCC	inactive: -0.183
CCCGATCG	inactive: -0.136
ATCTGCGA	inactive: -0.0313
GACCGATA	inactive: -0.016
GAACTGCC	inactive: -0.152

Sequence	PBM E-score
ATGGAGTC	inactive: 0.0444
AGGGAAAG	inactive: -0.0327
GAAGATAA	inactive: 0.105
AACTTAAG	inactive: 0.0426
CAAGTCAG	inactive: 0.068
CGGTGGAA	inactive: -0.122
CTTGGATC	inactive: 0.0244
ACGCAACT	inactive: -0.0183
AAGGGATA	≥ 0.0625
AACCAAGA	≥ 0.0686
CGACAACC	inactive: 0.186
GCAAGCGA	≥ 0.0812
ATGGACTG	inactive: 0.0602
CTGAAAGC	inactive: -0.0655
AATTTCTC	inactive: -0.0329
AAAGAGCT	inactive: -0.149
AGTTGAAT	inactive: -0.00343
CAGCTCGC	inactive: -0.15
GGGGGTAC	inactive: -0.133
AGCAAAGA	inactive: -0.0865
CGACTACA	inactive: 0.267
AGCTATAG	inactive: -0.0145
GAGTACTA	inactive: 0.182
GAAATTTC	inactive: -0.154
AGGACCGC	inactive: -0.148

Sequence	PBM E-score
CACCAAGA	inactive: 0.00541
ATTGGTCC	inactive: 0.0248
ATGGCGGA	inactive: -0.154
GCGGATAC	inactive: 0.0482
ATGTGCGA	inactive: 0.0607
CGTGCGCC	inactive: -0.176
CACGCTCA	inactive: 0.0645
AGGAGACT	inactive: -0.0925
AACGTTGG	inactive: -0.00739
AACCCTCC	inactive: -0.204
ATAAGTCG	inactive: -0.0808
AGTGGCAA	inactive: -0.0427
ATTTTTTG	inactive: 0.0886
GCCCAAAA	inactive: -0.0354
CTCCACAA	inactive: -0.00297
CCGAACGG	inactive: -0.0868
GGGTAGGA	inactive: -0.113
CTAAAGGA	inactive: -0.0521
CAATACTA	inactive: 0.11
CAGTCATG	inactive: 0.0102
CATTCTAC	inactive: 0.117
CCCGGGTA	inactive: -0.125
AAACGTTG	inactive: -0.0301
AGCATCGC	inactive: -0.217
AGCGTATG	inactive: 0.0253

Sequence	PBM E-score
GACTCCTA	inactive: -0.0155
CTTAGAAG	inactive: -0.0266
AACGACTT	inactive: -0.0108
GATCTACC	inactive: 0.00523
CCCCACAG	inactive: -0.143
ACGTCGTG	inactive: 0.0425
AGAGGCTA	inactive: -0.0745
GTAGGCAA	inactive: 0.0144
AGCAATAG	inactive: -0.0263
GTTCCTCA	inactive: -0.0442
ACCGTGCG	inactive: -0.0463
CGGCTTAA	inactive: -0.111
AACATACA	active: 0.361
AGTTTCCA	inactive: 0.0163
ACGTCTTG	inactive: 0.0632
CTATGGAC	inactive: -0.0129
TATCCACA	inactive: 0.0611
ATTGCTGG	inactive: -0.0996
GTACCTAA	inactive: 0.123
AACTCTGG	inactive: -0.0524
ACCCGCCC	inactive: -0.179
AATAATCC	inactive: 0.169
CGTAGCTA	inactive: -0.0527
ACAATCCT	inactive: 0.0955
CACATATG	inactive: 0.15

Sequence	PBM E-score
ATGTGTCA	inactive: 0.297
AACCCTGC	inactive: -0.184
GATTTATA	inactive: 0.114
CGGGCTGC	inactive: -0.247
CTGGCTAC	inactive: -0.0495
AGTGGATA	inactive: 0.0671
TCCGATAA	inactive: 0.0136
ACTATTGA	inactive: 0.13
GAGTATGA	inactive: 0.0775
AGCACATC	inactive: 0.0585
AGATTCGG	inactive: -0.0104
TGCACTAA	inactive: 0.0967
CGGGGGAG	inactive: -0.333
ATCGCTTA	inactive: 0.0356
GACGGATA	inactive: -0.0023
AGCCCCTC	inactive: -0.283
CCCAAAAC	inactive: 0.0461
CACTAGTG	inactive: 0.0587
CATTATGA	inactive: 0.088
GTCGTTAA	inactive: 0.0842
CAAGGATA	inactive: 0.0429
ACCACTTG	inactive: 0.0923
CACGGTAG	inactive: -0.00333
